{"source": "paper PMC9911399", "about": "“Two distinct binding modes provide the RNA-binding protein RbFox with extraordinary sequence specificity”", "binders": {"B1": {"name": "CUAGUCG (DNA:RNA)", "RNA": "GGGAGACCGGAAUUCAGAUUGUCCCUAGUCGUUAAAUCCCGUCGUAGCCACCA", "DNA 1": "CAATCTGAATTCCGGTCTCCC", "DNA 2": "TGGTGGCTACGACGGGATT"}, "B2": {"name": "AGCUAAG (DNA:RNA)", "RNA": "B1 RNA with C25A, U26G, A27C, G28U, U29A, C30A", "DNA 1": "CAATCTGAATTCCGGTCTCCC", "DNA 2": "TGGTGGCTACGACGGGATT"}, "B3": {"name": "AUCUUGG (DNA:RNA)", "RNA": "B1 RNA with C25A, A27C, G28U, C30G", "DNA 1": "CAATCTGAATTCCGGTCTCCC", "DNA 2": "TGGTGGCTACGACGGGATT"}, "B4": {"name": "AACCCAU (DNA:RNA)", "RNA": "GGGAGACCGGAAUUCAGAUUGUCCAACCCAUUUAAAUCCCGUCGUAGCCACCA", "DNA 1": "CAATCTGAATTCCGGTCTCCC", "DNA 2": "TGGTGGCTACGACGGGATT"}, "B5": {"name": "AAGGUUC (DNA:RNA)", "RNA": "B4 RNA with C27G, C28G, C29U, A30U, U31C", "DNA 1": "CAATCTGAATTCCGGTCTCCC", "DNA 2": "TGGTGGCTACGACGGGATT"}, "B6": {"name": "CGAGCGA (DNA:RNA)", "RNA": "B1 RNA with U26G, U29C, C30G, G31A", "DNA 1": "CAATCTGAATTCCGGTCTCCC", "DNA 2": "TGGTGGCTACGACGGGATT"}, "B7": {"name": "GCUAGCG (DNA:RNA)", "RNA": "B1 RNA with C25G, U26C, A27U, G28A, U29G", "DNA 1": "CAATCTGAATTCCGGTCTCCC", "DNA 2": "TGGTGGCTACGACGGGATT"}, "B8": {"name": "GCGACAG (DNA:RNA)", "RNA": "B4 RNA with A25G, A26C, C27G, C28A, U31G", "DNA 1": "CAATCTGAATTCCGGTCTCCC", "DNA 2": "TGGTGGCTACGACGGGATT"}, "B9": {"name": "UGAUAUU (DNA:RNA)", "RNA": "B4 RNA with A25U, A26G, C27A, C28U, C29A, A30U", "DNA 1": "CAATCTGAATTCCGGTCTCCC", "DNA 2": "TGGTGGCTACGACGGGATT"}, "B10": {"name": "ACGAUAU (DNA:RNA)", "RNA": "B4 RNA with A26C, C27G, C28A, C29U", "DNA 1": "CAATCTGAATTCCGGTCTCCC", "DNA 2": "TGGTGGCTACGACGGGATT"}, "B11": {"name": "CACGGUG (DNA:RNA)", "RNA": "B1 RNA with U26A, A27C, U29G, C30U", "DNA 1": "CAATCTGAATTCCGGTCTCCC", "DNA 2": "TGGTGGCTACGACGGGATT"}, "B12": {"name": "CCCAUAC (DNA:RNA)", "RNA": "B4 RNA with A25C, A26C, C28A, C29U, U31C", "DNA 1": "CAATCTGAATTCCGGTCTCCC", "DNA 2": "TGGTGGCTACGACGGGATT"}, "B13": {"name": "CAGUCCU (DNA:RNA)", "RNA": "B4 RNA with A25C, C27G, C28U, A30C", "DNA 1": "CAATCTGAATTCCGGTCTCCC", "DNA 2": "TGGTGGCTACGACGGGATT"}, "B14": {"name": "UAACCCA (DNA:RNA)", "RNA": "B4 RNA with A25U, C27A, A30C, U31A", "DNA 1": "CAATCTGAATTCCGGTCTCCC", "DNA 2": "TGGTGGCTACGACGGGATT"}, "B15": {"name": "GGGACAG (DNA:RNA)", "RNA": "B4 RNA with A25G, A26G, C27G, C28A, U31G", "DNA 1": "CAATCTGAATTCCGGTCTCCC", "DNA 2": "TGGTGGCTACGACGGGATT"}, "B16": {"name": "GGUAAGG (DNA:RNA)", "RNA": "B1 RNA with C25G, U26G, A27U, G28A, U29A, C30G", "DNA 1": "CAATCTGAATTCCGGTCTCCC", "DNA 2": "TGGTGGCTACGACGGGATT"}, "B17": {"name": "UAUGGAA (DNA:RNA)", "RNA": "B4 RNA with A25U, C27U, C28G, C29G, U31A", "DNA 1": "CAATCTGAATTCCGGTCTCCC", "DNA 2": "TGGTGGCTACGACGGGATT"}, "B18": {"name": "AUUUUUA (DNA:RNA)", "RNA": "B1 RNA with C25A, A27U, G28U, C30U, G31A", "DNA 1": "CAATCTGAATTCCGGTCTCCC", "DNA 2": "TGGTGGCTACGACGGGATT"}, "B19": {"name": "GAUUUAG (DNA:RNA)", "RNA": "B4 RNA with A25G, C27U, C28U, C29U, U31G", "DNA 1": "CAATCTGAATTCCGGTCTCCC", "DNA 2": "TGGTGGCTACGACGGGATT"}, "B20": {"name": "AGUAUUU (DNA:RNA)", "RNA": "B4 RNA with A26G, C27U, C28A, C29U, A30U", "DNA 1": "CAATCTGAATTCCGGTCTCCC", "DNA 2": "TGGTGGCTACGACGGGATT"}}, "note": "Where a chain is given by its changes, count along the chain named. The list shows a part of the results.", "data": [{"target": "T1, RBFOX1 RRM RbFoxmut (Fox-RRM*) (Homo sapiens, UniProt Q9NWB1 109-208, R118D;E147R;N151S;E152T)", "T1 sequence": "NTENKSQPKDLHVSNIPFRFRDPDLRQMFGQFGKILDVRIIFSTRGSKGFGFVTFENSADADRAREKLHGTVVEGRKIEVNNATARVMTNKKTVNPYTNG", "assay": "EMSA; HiTS-Eq, 1 nM pool, 10 min; buffer printed only for the single-RNA assays: 10 mM Tris pH 7.5, 150 mM NaCl, 3.4 mM EDTA, 0.001% NP-40, 30 C", "settings": "tags: His6 N-terminal (pET28a); label: 5' 32P", "procedure,_shortened": "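Purified RbFox RRM, wild type or mutant, was incubated for 10 min in 50 µL with 1 nM of a 5′-radiolabelled RNA pool carrying 7 randomized nucleotides, whose flanks were annealed to DNA oligonucleotides, over a series of increasing protein concentrations. Unbound RNA was resolved on 8% native PAGE, cut out, reverse-transcribed, barcoded by PCR and sequenced on an Illumina HiSeq 2500. Relative association constants were derived from changes in read counts for each RNA species versus the control reaction and normalised to the cognate motif.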", "values": [{"binder": "B1", "binding signal": "0.085 KA relative to UGCAUGU"}, {"binder": "B2", "binding signal": "0.124 KA relative to UGCAUGU"}, {"binder": "B3", "binding signal": "0.0984 KA relative to UGCAUGU"}, {"binder": "B4", "binding signal": "0.0847 KA relative to UGCAUGU"}, {"binder": "B5", "binding signal": "0.0982 KA relative to UGCAUGU"}, {"binder": "B6", "binding signal": "0.0809 KA relative to UGCAUGU"}, {"binder": "B7", "binding signal": "0.114 KA relative to UGCAUGU"}, {"binder": "B8", "binding signal": "0.086 KA relative to UGCAUGU"}, {"binder": "B9", "binding signal": "0.0838 KA relative to UGCAUGU"}, {"binder": "B10", "binding signal": "0.114 KA relative to UGCAUGU"}, {"binder": "B11", "binding signal": "0.131 KA relative to UGCAUGU"}, {"binder": "B12", "binding signal": "0.0589 KA relative to UGCAUGU"}, {"binder": "B13", "binding signal": "0.0911 KA relative to UGCAUGU"}, {"binder": "B14", "binding signal": "0.0992 KA relative to UGCAUGU"}, {"binder": "B15", "binding signal": "0.0862 KA relative to UGCAUGU"}, {"binder": "B16", "binding signal": "0.0619 KA relative to UGCAUGU"}, {"binder": "B17", "binding signal": "0.0852 KA relative to UGCAUGU"}, {"binder": "B18", "binding signal": "0.148 KA relative to UGCAUGU"}, {"binder": "B19", "binding signal": "0.111 KA relative to UGCAUGU"}, {"binder": "B20", "binding signal": "0.148 KA relative to UGCAUGU"}]}]}
